Test results published in article PMC4336329 (PLoS ONE, 2015).
Screen size: about 310,000 compounds; about 2,200 (0.71%) showed an effect of 50% or more. Effects have a minus sign here. The list shows a part of the results.

target: human ether-à-go-go-related gene (hERG) potassium channel (human, UniProt Q12809); experiment: primary screen, population patch clamp on CHO cells stably expressing hERG
Sequence (Q12809 whole entry, looked up): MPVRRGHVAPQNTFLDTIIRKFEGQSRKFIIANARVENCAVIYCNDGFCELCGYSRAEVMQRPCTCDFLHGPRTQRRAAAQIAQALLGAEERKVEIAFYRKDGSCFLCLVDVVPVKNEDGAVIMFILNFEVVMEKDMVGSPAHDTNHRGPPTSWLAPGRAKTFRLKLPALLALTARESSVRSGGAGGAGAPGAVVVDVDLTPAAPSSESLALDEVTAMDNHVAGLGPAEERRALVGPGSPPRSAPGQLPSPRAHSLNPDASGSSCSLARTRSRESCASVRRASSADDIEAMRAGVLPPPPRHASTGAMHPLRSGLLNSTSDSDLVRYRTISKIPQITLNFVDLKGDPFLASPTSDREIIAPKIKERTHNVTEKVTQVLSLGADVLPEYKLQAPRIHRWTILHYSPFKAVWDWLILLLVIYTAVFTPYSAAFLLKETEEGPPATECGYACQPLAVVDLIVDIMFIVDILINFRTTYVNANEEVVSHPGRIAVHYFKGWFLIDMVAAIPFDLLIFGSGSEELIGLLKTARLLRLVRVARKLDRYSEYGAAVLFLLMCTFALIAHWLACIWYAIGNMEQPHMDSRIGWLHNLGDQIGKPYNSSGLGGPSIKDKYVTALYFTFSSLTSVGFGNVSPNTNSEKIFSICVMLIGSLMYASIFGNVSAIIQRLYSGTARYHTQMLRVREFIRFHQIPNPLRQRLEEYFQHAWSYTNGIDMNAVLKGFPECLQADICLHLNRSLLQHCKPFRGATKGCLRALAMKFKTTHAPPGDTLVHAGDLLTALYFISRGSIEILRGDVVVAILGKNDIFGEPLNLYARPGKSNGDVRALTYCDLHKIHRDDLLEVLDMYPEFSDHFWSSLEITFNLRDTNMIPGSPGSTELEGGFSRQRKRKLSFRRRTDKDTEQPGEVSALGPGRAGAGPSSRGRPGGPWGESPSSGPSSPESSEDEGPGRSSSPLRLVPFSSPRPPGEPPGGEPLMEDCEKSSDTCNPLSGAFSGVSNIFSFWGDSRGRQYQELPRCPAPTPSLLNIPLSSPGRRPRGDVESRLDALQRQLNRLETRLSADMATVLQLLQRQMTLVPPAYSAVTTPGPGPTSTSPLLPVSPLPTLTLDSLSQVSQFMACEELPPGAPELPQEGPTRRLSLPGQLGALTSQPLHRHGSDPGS

| SMILES | hERG current change (%, negative = inhibition) at 1uM |
| --- | --- |
| NC(=O)C1CCC(NC(=O)OCc2ccccc2)CC1 (stereo not drawn) | 9.33% |
| Cc1ccccc1NC(=O)Cc1cccc(C(F)(F)F)c1 | 0.808% |
| CCNC(=S)N/N=C/c1ccc(C#N)cc1 | 6.88% |
| COCCN1CC(CNC(=O)c2cc(COc3ccc(C)c(C)c3)on2)CC1=O (stereo not drawn) | 2.19% |
| CCN(CC(=O)Nc1ccc(NC(C)=O)cc1)C(=O)c1oc2ccccc2c1C | 0.233% |
| Cc1cccc(C(=O)NCC(=O)NCC(c2ccco2)N2CCCCC2)c1 (stereo not drawn) | 8.09% |
| Cc1ccc(SCC(=O)Nc2ccc3c(c2)OCCO3)cc1 | 10.6% |
| COc1cc(-c2c(C#N)c(N)nc3[nH]c(=S)[nH]c(=O)c23)ccc1O | 12.9% |
| COc1ccc(/C=C/C(=O)C2(O)CCCCC2)cc1OC | 18.8% |
| Cc1ccccc1-n1nc2c(c1NC(=O)/C=C\c1ccc3c(c1)OCO3)CSC2 | 9.93% |
| CCC(C)(C(=O)NC1CCCCC1)N(CC1CCCO1)C(=O)CNC(=O)c1ccccc1 (stereo not drawn) | 9.5% |
| Cc1[nH]c(=O)[nH]c(=O)c1NC(=O)CSc1ncccc1-c1nc2ccccc2[nH]1 | 10.2% |
| CCCCNC(=O)c1cc2c(C)cc(C)cc2[nH]1 | 12% |
| Cn1c(=O)c2c(nc(N3CCNCC3)n2Cc2cccc3ccccc23)n(C)c1=O | 14.7% |
| COC(=O)c1ccc(OC)c(CN2CCCN(Cc3cc(C)ccc3C)S2(=O)=O)c1 | 13.7% |
| COc1cc(C(=O)NNC(=O)c2ccc3ccccc3n2)cc(OC)c1OC | 16.3% |
| O=[N+]([O-])c1cccc2c1ccc1ncccc12 | 11.6% |
| COc1cc(OC)cc(C(=O)N2CCN(C(=O)Cc3ccccc3)CC2)c1 | 8.43% |
| CCOC(=O)c1c(C)[nH]c(C)c1C(=O)COC(=O)c1cccnc1SC | -4.16% |
| Cc1ccc(S(=O)(=O)Nc2ccc(S(=O)(=O)NC(C)(C)C)cc2)cc1 | -4.85% |
| Cc1nc2ccccc2c(=O)n1-c1ccccc1C(F)(F)F | 10.8% |
| COc1cccc(-c2noc(CCCC(=O)Nc3ccc(C(N)=O)cc3)n2)c1 | 9.51% |
| CCn1c(CNC(C)=O)nnc1SCC(=O)c1ccc(Br)cc1 | 11.1% |
| CCCC(=O)NC(=S)Nc1cccc(C(C)=O)c1 | -1.51% |

| SMILES | hERG current change (%, negative = inhibition) at 1uM |
| --- | --- |
| CCC(C)c1ccc(NC(=S)NN2CCOCC2)cc1 (stereo not drawn) | -1.83% |
| CS(=O)(=O)N1CCC(Oc2ccccc2C(=O)NC2CCOC2)CC1 (stereo not drawn) | 27% |
| Cc1c(CN2CCC(C(=O)Nc3cccc(-c4cccc(Cl)c4)c3)CC2)cnn1C | 0.147% |
| Brc1cccc(OCCn2ccnc2)c1.O=C(O)C(=O)O | 5.76% |
| O=C(Cc1ccc(Cl)cc1)Nc1ccncc1 | 22.8% |
| O=C(O)C(Cc1ccccc1)N1C(=O)/C(=C/c2ccccc2)SC1=S (stereo not drawn) | -0.158% |
| N#CC(C#N)=CC1=C2OC(c3ccccc3)=CC(c3ccccc3)=C2CCC1 | 15.2% |
| CN(C)c1ccc(C2N(C(=O)N3CCOCC3)CCN2S(=O)(=O)c2ccccc2)cc1 (stereo not drawn) | 3.09% |
| CCC(CC)c1nnc(NC(=O)CCc2ccccc2)s1 | 10.3% |
| O=C(c1cnccn1)N(Cc1cccs1)C1(C(=O)NC2CCCC2)CCCCC1 | 2.56% |
| CSc1ccc(CN(C)CC(=O)NCc2ccccc2)cc1 | -11.1% |
| O=C1CC(N2CCN(CCc3ccccn3)CC2)C(=O)N1c1ccc(Cl)cc1 (stereo not drawn) | -46.2% |
| Cc1ncc([N+](=O)[O-])n1CC(=O)Nc1cccc(C(F)(F)F)c1 | 11.1% |
| C/C(=N\O)C(C)(C)Nc1ccc(F)cc1 | 12.7% |
| COc1ccc(OC)c(-c2csc(NC(=O)CSc3nnnn3C)n2)c1 | 6.93% |
| COC(=O)C1NN=C(C(=O)c2ccccc2)C1c1ccccc1 (stereo not drawn) | 14% |
| Cc1ccc2nc(C3CCN(C(=O)NCc4ccccc4)CC3)[nH]c2c1 | -7.07% |
| Cc1cc(N/N=C/c2ccccc2)nc(NCc2ccccc2)n1 | 7.44% |
| C=CCNC(=O)c1ccc(Sc2ccccc2)c([N+](=O)[O-])c1 | 10.6% |
| NS(=O)(=O)c1ccc2nc(NC(=O)CS(=O)(=O)c3ccc(F)cc3)sc2c1 | 16% |
| CCSc1cnn(-c2ccccc2)c(=O)c1Cl | 12.3% |
| CC(Cc1ccccc1)NC(=O)NC(C)Cc1ccccc1 (stereo not drawn) | 12.9% |
| CN1C(=O)/C(=C/c2cccc([N+](=O)[O-])c2)C(=O)N1c1ccccc1 | 12.9% |
| CNC(=O)CSc1nc(SC)ns1 | 15% |

| SMILES | hERG current change (%, negative = inhibition) at 1uM |
| --- | --- |
| CCOC(=O)N/N=C/c1c(F)c(F)c(F)c(F)c1F | 13.5% |
| Nn1c(=S)[nH]c2sc3c(c2c1=O)CCCC3 | 21.1% |
| CCN1/C(=C/c2cc[n+](CCCS(=O)(=O)[O-])c3ccccc23)Sc2ccccc21 | -1.43% |
| COc1ccc(CC2(CO)CCN(Cc3cc4ccccc4o3)CC2)cc1 | -19.9% |
| O=C(Cc1ccccc1)N/N=C/c1cccnc1 | 17.1% |
| O=C(CSc1nc2ccccc2[nH]1)NCc1ccccc1 | 1.84% |
| CSc1nc2ccc(S(=O)(=O)N3CCCCC3)cc2s1 | 9.18% |
| CCc1ccc(CN(C)CC(=O)Nc2ccc(S(=O)(=O)N3CCOCC3)cc2)cc1 | 13.5% |
| Cc1cc(=O)[nH]c2c1c(C)nn2C1CCCC1 | 3.77% |
| COc1ccc2[nH]c(=O)c(C(=O)O)cc2c1 | 5.38% |
| COc1ccc2nc(/C=N/NC(=O)[C@@H]3CCCN3C(=O)OC(C)(C)C)ccc2c1 | 8.64% |
| COc1ccc(C(=O)OCC(=O)NCCN2C(=O)CSC2=O)cc1 | 2.17% |
| O=C(O)Cn1cnc2scc(-c3cccs3)c2c1=O | 8.35% |
| N#C/C(=C\c1c(N(Cc2ccccc2)Cc2ccccc2)nc2ccccn2c1=O)C(N)=O | 2.75% |
| O=C(Cn1ncc2c(=O)oc3ccccc3c21)N1CCC(N2CCCCC2)CC1 | 5.4% |
| COc1ccc(C(C)NC(=O)c2ccc([N+](=O)[O-])cc2)cc1OC (stereo not drawn) | -5.39% |
| O=C(c1cccs1)N1CCN(c2ccc(Cl)cc2)CC1 | 9.19% |
| COc1ccc(C(=O)COC(=O)CNC(=O)c2ccccc2)cc1F | 4.04% |
| CCC(C)(C)NC(=O)C(c1ccccc1F)N(Cc1ccco1)C(=O)Cn1nnc2ccccc21 (stereo not drawn) | 0.622% |
| Cc1ccc(NS(=O)(=O)c2ccc3c(c2)N(C)CCO3)cc1 | -79.6% |
| O=C(NC1CC1)[C@@H]1CSC2c3ccccc3C(=O)N21 (stereo partly drawn) | 11.4% |
| O=C1CCCC/C1=C\Nc1ccc(S(=O)(=O)Nc2cnc3ccccc3n2)cc1 | 5.23% |
| CCOC(=O)C1(Cc2ccccc2C)CCCN(S(C)(=O)=O)C1 (stereo not drawn) | 15.9% |
| Cc1ccc(OCCSC2=NN2c2cc(C)nc(N)n2)cc1 | -2.37% |

| SMILES | hERG current change (%, negative = inhibition) at 1uM |
| --- | --- |
| CCCCCCC1CC(CCc2nc(=S)[nH][nH]2)C(=O)O1 (stereo not drawn) | 12.3% |
| COC(=O)c1ccccc1NC(=S)NC(=O)C1CCCCC1 | -1.14% |
| Cc1nnc(-c2ccccc2)o1 | 13.1% |
| CC(=O)Nc1cc(-c2nn(C)c(=O)c3ccccc23)ccc1N1CCOCC1 | 21% |
| C=CCNC(=O)C1CC(=O)N(c2ccc(OCC(=O)Nc3ccc(OC)cc3)cc2)C1 (stereo not drawn) | -7.42% |
| Cc1cc(C)c(C(=O)c2ccc(C(=O)N(C(C)C)C(C)C)cc2)c(C)c1 | -0.334% |
| CC(C)(C)NC(=O)NC(=O)COC(=O)CNC(=O)C1CCCCC1 | 5.39% |
| Cc1ccsc1C(=O)N1CCc2ccccc2C1 | 9.22% |
| CCN1CCN(CC(=O)Nc2cc(C)c(C)cc2[N+](=O)[O-])CC1 | -7.02% |
| Cc1ccc(C(=O)c2ccccc2C(=O)O)c(O)c1 | 6.75% |
| COc1ccc(S(=O)(=O)N2CCC(C(=O)N3CCOCC3)CC2)cc1Cl | 11.5% |
| N#Cc1ccc(C2=CC(=O)C[C@H](c3ccc4c(c3)OCO4)C2)cc1 | -21.5% |
| Nc1cccc2cnccc12 | 18.4% |
| CC(C)CC(NC(=O)C1CCC(C)CC1)C(=O)NCCN1CCOCC1 (stereo not drawn) | 11.4% |
| C[C@@H]1CC=C[C@H]2[C@H]1C(=O)N(Cc1ccccc1)[C@H]2c1ccc(-c2ccc(F)cc2)cc1F | 0.761% |
| Cc1cccc(-c2nc(C#N)c(N3CCC(C)CC3)o2)c1 | 14.2% |
| CCOC(=O)c1ccccc1NC(=O)COC(=O)CCC(=O)c1ccc(C)cc1 | 10.2% |
| Cc1ccc(NC(NC(=O)c2cccs2)C(Cl)(Cl)Cl)cc1 (stereo not drawn) | 13.5% |
| Clc1cccc2sc(N3CCN(c4ccccc4)CC3)nc12 | 7.47% |
| CN=CC1=C(O)c2ccccc2C1=O | 8.27% |
| Cc1ccc(S(=O)(=O)c2cc(OC(=O)c3ccco3)ccc2OC(=O)c2ccco2)cc1 | 9.68% |
